Source: the supplement of paper PMC3334620
Whole data set: some 33,000 sequences, median “E-score (-0.5 to 0.5)” near -0.053, cut for the highest 2% near 0.37. Some of the results follow.

Biological target: Hap1 (UniProt P0CE41)
Experiment: PBM E-score (8-mer binding enrichment) (E-score (-0.5 to 0.5)); higher = stronger / more preferred TF binding; most listed sequences are background and not binding sites
Settings: protein concentration: 200 nM; construct: GST-DNA-binding domain
Method: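 Universal 'all 10-mer' protein binding microarrays (Agilent AMADID 015681) probed with GST-tagged S. cerevisiae TFs (full-length or DBD) made by in vitro transcription/translation (PURExpress), about 100-200 nM. Bound TF was detected with fluorescent anti-GST. Each ungapped 8-mer (which stands for itself and its reverse complement) is scored by the PBM enrichment score (E-score), a modified Wilcoxon-Mann-Whitney statistic from -0.5 to +0.5, computed with the Universal PBM Analysis Suite. Scale: above 0.35 generally sequence-specific binding.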

Sequence of UniProt P0CE41 (P0CE41 whole entry): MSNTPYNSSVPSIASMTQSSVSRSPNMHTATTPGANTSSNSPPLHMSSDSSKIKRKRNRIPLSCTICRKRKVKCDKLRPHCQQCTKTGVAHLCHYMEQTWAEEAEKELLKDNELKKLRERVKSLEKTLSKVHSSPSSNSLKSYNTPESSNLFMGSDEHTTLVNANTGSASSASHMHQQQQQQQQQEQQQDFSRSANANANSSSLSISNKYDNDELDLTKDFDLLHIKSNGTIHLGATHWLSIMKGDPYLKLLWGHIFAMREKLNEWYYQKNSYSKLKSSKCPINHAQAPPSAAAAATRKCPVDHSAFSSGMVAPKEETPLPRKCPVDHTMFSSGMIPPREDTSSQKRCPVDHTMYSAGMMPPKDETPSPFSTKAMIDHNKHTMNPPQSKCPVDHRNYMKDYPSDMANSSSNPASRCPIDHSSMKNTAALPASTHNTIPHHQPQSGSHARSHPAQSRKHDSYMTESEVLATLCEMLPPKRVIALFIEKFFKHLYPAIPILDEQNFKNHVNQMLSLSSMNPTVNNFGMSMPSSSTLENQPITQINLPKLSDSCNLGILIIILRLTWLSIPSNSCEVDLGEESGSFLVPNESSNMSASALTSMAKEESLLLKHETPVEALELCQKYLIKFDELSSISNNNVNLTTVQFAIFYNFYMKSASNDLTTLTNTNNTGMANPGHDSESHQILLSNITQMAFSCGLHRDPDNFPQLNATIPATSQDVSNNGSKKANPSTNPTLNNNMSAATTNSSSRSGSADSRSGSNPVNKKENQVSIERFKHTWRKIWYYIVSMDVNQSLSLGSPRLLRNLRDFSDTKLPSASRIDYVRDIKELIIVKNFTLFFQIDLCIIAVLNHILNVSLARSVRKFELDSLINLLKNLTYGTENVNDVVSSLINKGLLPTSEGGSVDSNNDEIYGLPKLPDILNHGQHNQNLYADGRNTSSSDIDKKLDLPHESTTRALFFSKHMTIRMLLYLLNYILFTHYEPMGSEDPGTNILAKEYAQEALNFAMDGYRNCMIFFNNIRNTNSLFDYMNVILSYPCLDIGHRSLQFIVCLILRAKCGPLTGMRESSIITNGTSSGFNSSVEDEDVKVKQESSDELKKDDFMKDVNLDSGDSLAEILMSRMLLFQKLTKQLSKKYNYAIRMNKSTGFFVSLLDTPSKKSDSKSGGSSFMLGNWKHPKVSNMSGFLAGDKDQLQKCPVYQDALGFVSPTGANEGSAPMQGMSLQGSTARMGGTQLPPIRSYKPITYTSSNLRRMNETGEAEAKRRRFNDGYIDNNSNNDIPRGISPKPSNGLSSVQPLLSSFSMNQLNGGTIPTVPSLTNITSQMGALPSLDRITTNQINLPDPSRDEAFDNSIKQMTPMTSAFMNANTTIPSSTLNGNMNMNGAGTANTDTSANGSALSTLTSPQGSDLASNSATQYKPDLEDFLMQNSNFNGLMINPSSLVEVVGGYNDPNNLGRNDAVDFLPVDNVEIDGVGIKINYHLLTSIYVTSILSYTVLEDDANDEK

Sequence	PBM E-score
ATATTCAA	-0.0463
GGACAAGA	0.1
CCTAAGAA	-0.175
GTCCCCCA	-0.334
CCACTCCG	0.271
GTATTGGA	-0.137
GATTGAGA	0.015
AAGGTTGG	-0.0733
CTTAGTCA	-0.181
AAGCTACG	-0.153
AACGATAC	-0.2
GCATCGCA	0.0122
AATTAGAT	-0.088
GCCGAAAC	0.38
GATAGTCC	0.0635
TAATAACA	-0.125
GCCATGTA	-0.109
ACGATCCA	-0.111
AGACAAAG	-0.202
CAGTAATC	-0.223
AACTTTAT	0.00581
ATTTTACG	0.196

Sequence	PBM E-score
CGAATGAG	0.166
ACTGACAT	-0.245
CCTCTAAC	0.021
GGCTAAAA	0.0064
AGACGAGA	-0.117
ATAGATCC	0.234
GCTCCCCA	-0.331
CTTGGGCA	-0.00168
ACCCTGCA	-0.132
CAACATGG	-0.234
ATGGCACG	-0.00105
ATCGGCGA	0.357
AACGATTA	-0.108
ATACGTAT	0.00473
ATAGATTC	-0.118
GGGACGTA	-0.0496
AAAAGTGT	-0.183
AATTACCA	0.0497
CGCTTACA	-0.0766
GCCCATAA	0.0134
GAGACTGA	-0.114
CTAACCTA	0.0363

Sequence	PBM E-score
GAATCGAC	0.212
CTGTAGCC	-0.136
AAGCTTCC	-0.137
GGGCAGGA	0.00446
ATTATGTC	-0.176
GCTCACCA	-0.211
TGTAGCAA	0.0192
TAGTTTAA	-0.0984
CATGCATG	-0.254
AGTGGCCA	-0.187
AACTCATT	0.123
CTAAGTAG	-0.172
AGTACCGG	0.297
AGAATACC	0.0161
GACCGGGC	0.331
CGAGACTC	0.00816
GAGGTCGC	0.0338
GCGTAGCA	0.0628
TAACCCTA	-0.263
ACCGCCGT	0.207
GATCTGCC	0.03
AAAGAATC	-0.143

Sequence	PBM E-score
CCGTTCCC	0.0948
ACAGCAAT	-0.0448
GAGCAGCA	-0.156
ATACGATC	-0.0273
AGAGCTAG	-0.299
GTAGTCAC	-0.113
CTAGAGGA	-0.241
ACTTCGAT	-0.0126
CGCTACTC	0.0937
AAGGGGTG	-0.244
GCCTGCAA	-0.181
AGTGTAGC	-0.11
AATGTGCA	-0.183
TTGCGAAA	0.19
AAGTTTCC	0.0886
AAGCAAGC	-0.171
AGTGAGCG	-0.133
GTAAATAC	0.0889
GGAGTGCA	0.0897
GAAAAGTA	-0.0758
AGCATGGG	-0.172
GAATGAGA	0.0628

Sequence	PBM E-score
CGATGTAG	-0.0466
CTTTCTTC	-0.0103
AACAAATT	-0.133
CTAACGGA	0.38
GGAACATA	0.0267
AGAAATAC	0.0591
AGGATACG	-0.196
CTTCAAAC	-0.0498
AGCTAGTA	-0.0487
GCGATGAA	0.0119
AGTATTTA	-0.0413
AGCTAGCT	-0.336
AACACGGT	-0.00323
GAGGAGGC	-0.162
ATGGTAGA	-0.241
CTGAAACA	-0.131
CTTAAACC	2e-05
GACAATCA	-0.0325
CGAGTAAG	0.201
CACGTGGC	-0.28
CCTGTTTA	-0.111
GGACCACC	0.0244
